We go through 5 molecules from publication PMC6978305, “Formation of S. pombe Erh1 homodimer mediates gametogenic gene silencing and meiosis progression” (Scientific Reports, 2020).

Test [1] has as its target Wild-type Erh1, TAP-tagged and FLAG-tagged copies co-expressed in S. pombe (S. pombe) (UniProt G2TRN4). The test can be described thus: co-IP; TAP pull-down from native extracts of S. pombe erh1∆ cells expressing plasmid-encoded tagged Erh1, Western blot; as described in Simonetti et al. (ref. 21). (In general: A western blot detects proteins with antibodies after separation by electrophoresis.)

For a further test, the target named is T1, Mmi1-TAP (S. pombe) (UniProt O74958).
T1 sequence: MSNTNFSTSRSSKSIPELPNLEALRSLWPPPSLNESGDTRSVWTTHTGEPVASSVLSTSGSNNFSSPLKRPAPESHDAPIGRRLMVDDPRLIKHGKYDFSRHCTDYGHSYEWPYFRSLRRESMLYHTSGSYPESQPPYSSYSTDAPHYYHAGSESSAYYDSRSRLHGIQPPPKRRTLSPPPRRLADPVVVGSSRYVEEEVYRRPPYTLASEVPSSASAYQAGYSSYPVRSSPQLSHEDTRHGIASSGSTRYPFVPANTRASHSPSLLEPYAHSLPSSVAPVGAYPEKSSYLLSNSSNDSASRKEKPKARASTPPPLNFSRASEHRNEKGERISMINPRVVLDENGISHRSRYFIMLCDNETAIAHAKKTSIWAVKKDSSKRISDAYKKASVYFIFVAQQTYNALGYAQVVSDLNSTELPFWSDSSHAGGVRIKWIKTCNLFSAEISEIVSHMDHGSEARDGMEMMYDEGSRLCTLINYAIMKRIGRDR
The description is as above.

The target in test [2] is Erh1 I11R,L13R, TAP-tagged and FLAG-tagged copies co-expressed in S. pombe (S. pombe) (UniProt G2TRN4). The description is as above.
Test [3] concerns the target S. pombe Erh1 I11R,L13R double mutant, recombinant (S. pombe) (UniProt G2TRN4). Kind of test: SEC-MALS; SEC-MALLS of purified recombinant proteins in solution; both purified. For orientation: Size exclusion chromatography separates by hydrodynamic size, large species first.

Where a chain is given by its changes, count along the chain named. Numbers in names are those of the source. These are yes or no findings as the source states them, for the method shown. For some assays here: Binding seen in cells or lysates may run through a third protein. Some entries that bind do so weakly or less than the wild type. For some assays here: Tags and fused reporters may be left off the sequences shown.

B1: Wild-type Erh1, TAP-tagged and FLAG-tagged copies co-expressed in S. pombe (protein, UniProt G2TRN4 1-104)
chain: MSPPPAESHIILLIQQGSDPKTRIWSDHCSLRSAIEYIVGVYQTNQAVSEKESIDVSRFFNFFDEIYDCVPLVYDRHFRAYIPHEKQWLLHHAQEYLTAARQIP
Take B1: the binding entry in test [1] is recorded as “binds”.

B2: GFP-Erh1, wild type, plasmid-encoded in S. pombe (protein, UniProt G2TRN4 1-104)
chain: B1 chain
B2: the binding entry with Mmi1-TAP (S. pombe) is reported as “binds”.

B3: Erh1 I11R,L13R, TAP-tagged and FLAG-tagged copies co-expressed in S. pombe (protein, UniProt G2TRN4 1-104)
chain: B1 chain with I11R, L13R
For B3, in test [2], the binding result is listed as “no binding”.

B4: GFP-Erh1 I11R,L13R, plasmid-encoded in S. pombe (protein, UniProt G2TRN4 1-104)
chain: B1 chain with I11R, L13R
With B4, the binding result in the test with Mmi1-TAP (S. pombe) is “binds”.

B5: S. pombe Erh1 I11R,L13R double mutant, recombinant (protein, UniProt G2TRN4 1-104)
chain: B1 chain with I11R, L13R
Take B5: in test [3], the binding result is reported as “no binding”.
